# In a collection of fitness landscapes (doi:10.1126/science.1257360):
# This is one part of the list.
# B1: PhoQ; a variant is named by its letters at X, in order, P23837 (parent)
# chain: MKKLLRLFFPLSLRVRFLLATAAVVLVLSLAYGMVALIGYSVSFDKTTFRLLRGESNLFYTLAKWENNKLHVELPENIDKQSPTMTLIYDENGQLLWAQRDVPWLMKMIQPDWLKSNGFHEIEADVNDTSLLLSGDHSIQQQLQEVREDDDDAEMTHSVAVNVYPATSRMPKLTIVVVDTIPVELKSSYMVWSWFIYVLSANLLLVIPLLWVAAWWSLRPIEALAKEVRELEEHNRELLNPATTRELTSLVRNLNRLLKSERERYDKYRTTLTDLTHSLKTPLXXLQXXLRSLRSEKMSVSDAEPVMLEQISRISQQIGYYLHRASMRGGTLLSRELHPVAPLLDNLTSALNKVYQRKGVNISLDISPEISFVGEQNDFVEVMGNVLDNACKYCLEFVEISARQTDEHLYIVVEDDGPGIPLSKREVIFDRGQRVDTLRPGQGVGLAVAREITEQYEGKIVAGESMLGGARMEVIFGRQHSAPKDE
# Variants of: B1
# Experiment: enrichment ratio after two sorts for PhoP signalling (ratio (wild type AVST 3.29)); higher = more functional
# Settings: with PhoP (E. coli)
row,Variant,enrichment ratio
1,HSYA,≤ 0.25
2,YYLY,≤ 0.25
3,GWVA,≤ 0.25
4,SWAC,≤ 0.25
5,LKLW,≤ 0.25
6,GYMC,≤ 0.25
7,YYEW,≤ 0.25
8,PKYP,≤ 0.25
9,QQSH,≤ 0.25
10,KAEC,≤ 0.25
11,GHAS,≤ 0.25
12,RRKA,≤ 0.25
13,VIKR,≤ 0.25
14,LHWN,≤ 0.25
15,ICTR,≤ 0.25
16,WREF,≤ 0.25
17,PKNG,≤ 0.25
18,NFHG,≤ 0.25
19,YMGD,≤ 0.25
20,IDYM,≤ 0.25
21,EDMH,≤ 0.25
22,RHEV,≤ 0.25
23,SFWF,≤ 0.25
24,RWMY,≤ 0.25

row,Variant,enrichment ratio
1,QAGN,4.27
2,EFTC,≤ 0.25
3,TMHW,≤ 0.25
4,SVLM,2.56
5,VRSG,≤ 0.25
6,MNSA,≤ 0.25
7,KGKK,≤ 0.25
8,EGLY,≤ 0.25
9,STST,9.52
10,LFIR,≤ 0.25
11,NHWR,≤ 0.25
12,DHTA,≤ 0.25
13,VKAH,≤ 0.25
14,PHCS,≤ 0.25
15,FGCP,≤ 0.25
16,KPLP,≤ 0.25
17,GNVK,≤ 0.25
18,HGDY,≤ 0.25
19,ISQF,≤ 0.25
20,RWRR,≤ 0.25
21,EANC,≤ 0.25
22,IQQY,≤ 0.25
23,FMSI,0.483
24,LSWQ,4.56

row,Variant,enrichment ratio
1,IDIN,≤ 0.25
2,SIES,≤ 0.25
3,GMMI,≤ 0.25
4,AEIE,≤ 0.25
5,NHMA,16.2
6,EGVT,≤ 0.25
7,NPAV,≤ 0.25
8,GWGW,≤ 0.25
9,VCWP,≤ 0.25
10,QNYK,≤ 0.25
11,VGVC,≤ 0.25
12,KTQD,≤ 0.25
13,KPGL,≤ 0.25
14,MKMI,≤ 0.25
15,NTEN,≤ 0.25
16,KAVL,≤ 0.25
17,QPPV,≤ 0.25
18,GNII,8.44
19,ANVW,≤ 0.25
20,QFDY,≤ 0.25
21,VFLP,≤ 0.25
22,MGPF,≤ 0.25
23,LSTP,≤ 0.25
24,VTDM,≤ 0.25

row,Variant,enrichment ratio
1,SGTG,15.9
2,SNAK,≤ 0.25
3,LLMH,≤ 0.25
4,RCAE,≤ 0.25
5,HPCH,≤ 0.25
6,EKHT,≤ 0.25
7,WHVW,≤ 0.25
8,LFAK,≤ 0.25
9,NVGK,≤ 0.25
10,IACM,≤ 0.25
11,STTR,≤ 0.25
12,QQIC,≤ 0.25
13,AFID,≤ 0.25
14,VKNR,≤ 0.25
15,HSVN,≤ 0.25
16,MLTH,≤ 0.25
17,KKTG,≤ 0.25
18,LGYY,≤ 0.25
19,WHGW,≤ 0.25
20,DFNT,≤ 0.25
21,ITTW,≤ 0.25
22,LMHA,≤ 0.25
23,GWRW,≤ 0.25
24,FHMA,≤ 0.25

row,Variant,enrichment ratio
1,KTHY,≤ 0.25
2,WPVS,≤ 0.25
3,PLCW,≤ 0.25
4,QNEI,≤ 0.25
5,KNKP,≤ 0.25
6,SLQG,≤ 0.25
7,ALAM,12.2
8,VRAM,≤ 0.25
9,HTYV,≤ 0.25
10,AFAF,≤ 0.25
11,LWKT,≤ 0.25
12,HLRW,≤ 0.25
13,DQCV,≤ 0.25
14,PLPH,≤ 0.25
15,TPKE,≤ 0.25
16,YSQC,≤ 0.25
17,FPDQ,≤ 0.25
18,NCNG,≤ 0.25
19,VDIK,≤ 0.25
20,SVWF,≤ 0.25
21,PDNK,≤ 0.25
22,ELFL,≤ 0.25
23,HRHA,≤ 0.25
24,GDPN,≤ 0.25

row,Variant,enrichment ratio
1,WGPV,≤ 0.25
2,YKWC,≤ 0.25
3,RHDN,≤ 0.25
4,LTWW,≤ 0.25
5,GFTR,≤ 0.25
6,SWKY,≤ 0.25
7,THSF,4.98
8,DLNN,≤ 0.25
9,LWGS,≤ 0.25
10,IMWS,≤ 0.25
11,PPRG,≤ 0.25
12,YYWK,≤ 0.25
13,KMRE,≤ 0.25
14,QITP,≤ 0.25
15,YTGV,≤ 0.25
16,PVES,≤ 0.25
17,YHQI,≤ 0.25
18,HKWL,≤ 0.25
19,QGSL,11.2
20,TMMD,≤ 0.25
21,GPSY,≤ 0.25
22,FQQQ,≤ 0.25
23,QSSP,≤ 0.25
24,INES,≤ 0.25

row,Variant,enrichment ratio
1,RVGR,≤ 0.25
2,NLNF,≤ 0.25
3,TINF,1.79
4,GNDT,≤ 0.25
5,GSPN,≤ 0.25
6,KMGG,≤ 0.25
7,ISVV,≤ 0.25
8,LMPI,0.258
9,NRHW,≤ 0.25
10,IHPA,≤ 0.25
11,PGSA,≤ 0.25
12,LPMD,≤ 0.25
13,AESK,≤ 0.25
14,FVRN,≤ 0.25
15,HSFQ,≤ 0.25
16,QTYI,12.9
17,MCCY,≤ 0.25
18,APMA,≤ 0.25
19,WASK,≤ 0.25
20,HVYK,≤ 0.25
21,PWVE,≤ 0.25
22,NWPM,≤ 0.25
23,VTWD,≤ 0.25
24,WFQN,≤ 0.25

row,Variant,enrichment ratio
1,KDSF,≤ 0.25
2,THKP,≤ 0.25
3,QSKW,≤ 0.25
4,FSQN,≤ 0.25
5,GCPM,≤ 0.25
6,HDSF,≤ 0.25
7,AELP,≤ 0.25
8,NKFP,≤ 0.25
9,ICNC,≤ 0.25
10,VEIE,≤ 0.25
11,YWAT,≤ 0.25
12,FMWH,1.52
13,AWDM,≤ 0.25
14,YYGH,≤ 0.25
15,ELYW,≤ 0.25
16,LHMT,≤ 0.25
17,FEAS,≤ 0.25
18,TRFP,≤ 0.25
19,ESNM,≤ 0.25
20,RRVA,≤ 0.25
21,AAMC,≤ 0.25
22,WTQP,≤ 0.25
23,VLTR,≤ 0.25
24,EQSC,≤ 0.25

row,Variant,enrichment ratio
1,DEAQ,≤ 0.25
2,VWET,≤ 0.25
3,ICSE,≤ 0.25
4,PHEN,≤ 0.25
5,DHHV,≤ 0.25
6,RKKC,≤ 0.25
7,LFEY,≤ 0.25
8,WFEF,≤ 0.25
9,DCMK,≤ 0.25
10,DRFF,≤ 0.25
11,SPSC,≤ 0.25
12,NQPH,≤ 0.25
13,DEVP,≤ 0.25
14,TLQC,3.19
15,MWLF,≤ 0.25
16,VYHI,≤ 0.25
17,FNSQ,≤ 0.25
18,AVIT,1.3
19,PAVI,≤ 0.25
20,QVDA,≤ 0.25
21,VEPW,≤ 0.25
22,PGFE,≤ 0.25
23,PKSE,≤ 0.25
24,ALIA,0.266

row,Variant,enrichment ratio
1,FAAA,≤ 0.25
2,IHTA,≤ 0.25
3,SNQT,0.383
4,NDDC,≤ 0.25
5,SIHS,1.56
6,SFPR,≤ 0.25
7,MNWH,0.253
8,TNWT,≤ 0.25
9,RNYQ,≤ 0.25
10,YWRR,≤ 0.25
11,THLI,10.7
12,CSNS,≤ 0.25
13,DNKC,≤ 0.25
14,DNVD,≤ 0.25
15,KQCR,≤ 0.25
16,SYRD,≤ 0.25
17,SRWF,≤ 0.25
18,TLHH,≤ 0.25
19,GHYF,≤ 0.25
20,NTWF,≤ 0.25
21,ENIW,≤ 0.25
22,QQMV,≤ 0.25
23,DSGF,≤ 0.25
24,NYAM,≤ 0.25

row,Variant,enrichment ratio
1,PTPE,≤ 0.25
2,VGIQ,≤ 0.25
3,FHGL,≤ 0.25
4,RMYL,≤ 0.25
5,FVWV,≤ 0.25
6,HQIQ,≤ 0.25
7,NSKM,≤ 0.25
8,PTSY,≤ 0.25
9,MSPN,≤ 0.25
10,VMWT,≤ 0.25
11,KSYN,≤ 0.25
12,LVEW,≤ 0.25
13,VILW,≤ 0.25
14,KMYC,≤ 0.25
15,SVQL,4.26
16,SEVP,≤ 0.25
17,YLRW,≤ 0.25
18,IPST,≤ 0.25
19,TPVP,≤ 0.25
20,NKRL,≤ 0.25
21,LWNY,≤ 0.25
22,SGLK,1.86
23,KCDS,≤ 0.25
24,TATW,≤ 0.25

row,Variant,enrichment ratio
1,RVNH,≤ 0.25
2,GWGG,≤ 0.25
3,MENF,≤ 0.25
4,NPPI,≤ 0.25
5,FRVC,≤ 0.25
6,HCFT,≤ 0.25
7,DSWR,≤ 0.25
8,WIIR,≤ 0.25
9,MVLG,4.6
10,EFFY,≤ 0.25
11,HEVG,≤ 0.25
12,YSAN,0.914
13,ICHM,≤ 0.25
14,KCKT,≤ 0.25
15,KFQS,≤ 0.25
16,KKYM,≤ 0.25
17,DVKV,≤ 0.25
18,LFDC,≤ 0.25
19,WGVQ,≤ 0.25
20,QMRA,≤ 0.25
21,GCGH,≤ 0.25
22,MMLV,≤ 0.25
23,WCYM,≤ 0.25
24,TGTQ,17.7

row,Variant,enrichment ratio
1,KIQA,≤ 0.25
2,QHDF,8.2
3,WNNG,≤ 0.25
4,GRYV,≤ 0.25
5,DQKI,≤ 0.25
6,LQRN,≤ 0.25
7,QIEP,2.06
8,PWPS,≤ 0.25
9,DYDA,≤ 0.25
10,LTQD,≤ 0.25
11,LVGV,≤ 0.25
12,RMRE,≤ 0.25
13,YIYK,≤ 0.25
14,LSHS,≤ 0.25
15,LWYW,≤ 0.25
16,DEVS,≤ 0.25
17,KHIE,≤ 0.25
18,AFAS,≤ 0.25
